Measured values taken from the supplement of paper PMC3334620.
The full ranking holds about 33,000 sequences; the median of “E-score (-0.5 to 0.5)” is about -0.016, and the highest 2% start at about 0.32. The list shows a part of the results.

Biological target: T1, Stp1 (UniProt B3LFK1)
T1 sequence: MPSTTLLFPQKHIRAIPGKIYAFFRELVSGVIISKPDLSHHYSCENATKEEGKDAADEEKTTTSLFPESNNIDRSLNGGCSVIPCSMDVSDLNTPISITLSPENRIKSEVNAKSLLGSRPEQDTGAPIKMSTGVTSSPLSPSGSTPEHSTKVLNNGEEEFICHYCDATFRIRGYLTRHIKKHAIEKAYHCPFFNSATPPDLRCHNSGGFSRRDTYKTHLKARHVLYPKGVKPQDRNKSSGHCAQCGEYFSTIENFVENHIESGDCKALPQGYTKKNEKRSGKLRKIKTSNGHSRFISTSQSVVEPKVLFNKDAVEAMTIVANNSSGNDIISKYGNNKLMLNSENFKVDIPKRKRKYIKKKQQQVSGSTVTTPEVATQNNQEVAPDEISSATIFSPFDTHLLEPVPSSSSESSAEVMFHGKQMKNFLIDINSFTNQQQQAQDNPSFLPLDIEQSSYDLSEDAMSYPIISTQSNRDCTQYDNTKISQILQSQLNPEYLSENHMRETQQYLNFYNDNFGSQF
Assay: PBM E-score (8-mer binding enrichment) (E-score (-0.5 to 0.5)); higher = stronger / more preferred TF binding; most listed sequences are background and not binding sites
Conditions: protein concentration: 200 nM; construct: GST-full length
How it was run: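 PURExpress in vitro transcription/translation supplied GST-tagged yeast transcription factors, either full-length or DNA-binding domain. Applied at about 100-200 nM to universal all-10-mer Agilent arrays double-stranded by primer extension, the bound protein was detected with fluorescent anti-GST. E-scores, modified Wilcoxon-Mann-Whitney statistics, were given by the Universal PBM Analysis Suite to ungapped eight-base words pooled with their reverse complements after masliner normalisation.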

In order of rising “PBM E-score” value:
1. CCCCCCAG  -0.5
2. GAGACCCC  -0.357
3. GAGGGTCA  -0.326
4. CCCCTAGG  -0.323
5. GAAAGCTC  -0.3
6. AATGAGGA  -0.299
7. AGGGGGGG  -0.287
8. ACGTTCCC  -0.286
9. CGGAGGAC  -0.253
10. CCAATAGC  -0.248
11. AGAGCTCA  -0.247
12. ACTTCAGC  -0.235
13. GGGACAGA  -0.233
14. CCTGGTCG  -0.218
15. ACTATGGA  -0.213
16. CCCCAAGG  -0.202
17. CCAAGTAG  -0.199
18. CCAAGGAA  -0.198
19. CAGGTGAC  -0.18
20. CGGGGCCC  -0.175
21. CAGCCAGA  -0.172
22. CTGGACAG  -0.168
23. CTGACGAC  -0.167
24. CCAACTGA  -0.167
25. AAAGTGTC  -0.162
26. CTGCTTCA  -0.155
27. CGGTCCTC  -0.154
28. ATGGGAAG  -0.152
29. GGATTACC  -0.148
30. CTGGCTGC  -0.146
31. AAAAGAGT  -0.145
32. GACAGTAC  -0.144
33. AGGCCCCG  -0.142
34. CACACCTC  -0.138
35. ATCCTAAG  -0.137
36. CCTAGACA  -0.137
37. GAGAGCAC  -0.133
38. ACAGCATC  -0.129
39. GGCTTGAC  -0.126
40. CTTACCCA  -0.125
41. CGTCATAA  -0.125
42. AGCCCGTA  -0.121
43. AGTGCAAT  -0.119
44. ATGAGAGG  -0.118
45. AAAGACGT  -0.116
46. ATATGTTA  -0.114
47. AGAACGCT  -0.11
48. AGAGCTTG  -0.106
49. ATCTAGAG  -0.105
50. CGAGATTC  -0.105
51. AACGTTTA  -0.104
52. CAGCGGGG  -0.0996
53. ACTGCTAG  -0.0979
54. GACCTACA  -0.0949
55. TCTAGTCA  -0.0914
56. CGCTGTGA  -0.0905
57. AGGATCAG  -0.0864
58. AAGCGTGG  -0.0843
59. AAACACCC  -0.0828
60. AAGCTGAG  -0.0791
61. AGAGAGGC  -0.0773
62. GCCTAGTA  -0.0735
63. GGTCATGA  -0.068
64. CATGGTAG  -0.0639
65. AGGCAAGC  -0.0628
66. ATTCACAG  -0.062
67. GATAGGAA  -0.0617
68. CTCATAAA  -0.0607
69. AGCCGGTA  -0.0607
70. CTAAGAGA  -0.0601
71. ACCTCATA  -0.0518
72. CATAAGCC  -0.0492
73. AAGTTACG  -0.0442
74. AGAGTGAG  -0.0432
75. CATTGTAC  -0.0426
76. GGAGGTAA  -0.0408
77. AGACGCGA  -0.0385
78. CACCACGC  -0.0336
79. TACCCTGA  -0.0306
80. AACATGCT  -0.029
81. CGAATGAA  -0.0234
82. TGTGACAA  -0.0199
83. CGAGAACC  -0.0185
84. AAGTACTG  -0.0176
85. ATTGGTCG  -0.0151
86. AGACTTTG  -0.0142
87. CCCGTCGA  -0.0127
88. TAGACAGA  -0.00937
89. CCCATACG  -0.00599
90. CGATTTGC  -0.00024
91. GCTCTTAC  0.00089
92. AAATCCAC  0.00175
93. ACGCCGGA  0.00769
94. ATCTATGA  0.0128
95. GTGCCCGA  0.0185
96. TCAAGCGA  0.0232
97. ACGGAATA  0.0278
98. CAACGAGA  0.0401
99. CCCGTCGC  0.0407
100. TGCTCAAA  0.0414
101. CTTGCGTA  0.0422
102. GTTTCCTA  0.0458
103. CGCGACGC  0.0474
104. CATTATAA  0.0479
105. AACTTGTG  0.0481
106. CTCGTGTA  0.0486
107. CAATATTG  0.051
108. GTACGATA  0.051
109. GTTGCACA  0.0546
110. CTGCAATA  0.0565
111. AAACGATA  0.0578
112. AGAATCTA  0.0588
113. GCTAGATA  0.0597
114. ACTTGTCA  0.0629
115. GACACGCA  0.0631
116. ACATCCCG  0.07
117. CACCGACA  0.0706
118. GCGATCGC  0.077
119. CGTCCCTA  0.0772
120. GGACAGCA  0.0785
121. ATTAATTG  0.0803
122. GCCACTCC  0.0809
123. GATCAGTA  0.085
124. ATTTCCTG  0.0896
125. CGTATCAC  0.0898
126. CTGGCATA  0.0913
127. TTCCAGAA  0.094
128. ATTTTAGG  0.0943
129. CGAAACTA  0.0955
130. CATGATAC  0.102
131. ATACCTGA  0.105
132. GTAACGAA  0.11
133. ACCGATTG  0.111
134. AGATCGCG  0.113
135. GTACATGA  0.117
136. CAAGACAC  0.117
137. AGATTCAA  0.12
138. CCGGCGCA  0.121
139. GATAAAAA  0.121
140. ACTAAAAG  0.123
141. AGCAAGAC  0.126
142. ATGTGTAG  0.134
143. ACAATGAA  0.135
144. CAAAATTA  0.139
145. AAACACAA  0.142
146. CCGCGGTA  0.143
147. CCAATACG  0.146
148. CGTACTCA  0.146
149. ATATACTG  0.148
150. ACAGCAAC  0.15
151. GATACAAA  0.153
152. ATAGCGTA  0.162
153. AAAAGTAG  0.171
154. GATTACAA  0.172
155. AAGAAATT  0.173
156. CAACGAGG  0.175
157. AATTGTCA  0.176
158. AAACATGT  0.176
159. ACGAAGAA  0.192
160. AACGGGTA  0.194
161. AAAACGGA  0.201
162. CCTCGCGC  0.219
163. GAGATACA  0.224
164. ATTTTTTC  0.229
165. GCAGAAAC  0.234
166. CGTATGCA  0.255
167. CTTGCAAG  0.27
168. CGTCCAAA  0.273
169. CTTTTGCC  0.286
170. AATTTTGA  0.3
171. GACACGGA  0.315
172. ACACGCCG  0.351
